Laboratory results published in paper PMC6919601, “Identification of Plasmodium dipeptidyl aminopeptidase allosteric inhibitors by high throughput screening” (PLoS ONE, 2019).
Hit rate of the full screen: of about 110,000 compounds, about 230 (0.21%) showed an effect of 50% or more. Some of the results follow.

Target: DPAP1 (Plasmodium falciparum, UniProt Q8IIJ9)
Experiment: primary screen, percent inhibition; read by cleavage of a fluorogenic dipeptide substrate; higher = more effect of the substance
Design: species or system P. falciparum D10 trophozoite lysates; single well
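Further: 30 min substrate incubation versus DMSO and 10 µM JCP410 controls.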

Chain of DPAP1 (Q8IIJ9 whole entry, looked up): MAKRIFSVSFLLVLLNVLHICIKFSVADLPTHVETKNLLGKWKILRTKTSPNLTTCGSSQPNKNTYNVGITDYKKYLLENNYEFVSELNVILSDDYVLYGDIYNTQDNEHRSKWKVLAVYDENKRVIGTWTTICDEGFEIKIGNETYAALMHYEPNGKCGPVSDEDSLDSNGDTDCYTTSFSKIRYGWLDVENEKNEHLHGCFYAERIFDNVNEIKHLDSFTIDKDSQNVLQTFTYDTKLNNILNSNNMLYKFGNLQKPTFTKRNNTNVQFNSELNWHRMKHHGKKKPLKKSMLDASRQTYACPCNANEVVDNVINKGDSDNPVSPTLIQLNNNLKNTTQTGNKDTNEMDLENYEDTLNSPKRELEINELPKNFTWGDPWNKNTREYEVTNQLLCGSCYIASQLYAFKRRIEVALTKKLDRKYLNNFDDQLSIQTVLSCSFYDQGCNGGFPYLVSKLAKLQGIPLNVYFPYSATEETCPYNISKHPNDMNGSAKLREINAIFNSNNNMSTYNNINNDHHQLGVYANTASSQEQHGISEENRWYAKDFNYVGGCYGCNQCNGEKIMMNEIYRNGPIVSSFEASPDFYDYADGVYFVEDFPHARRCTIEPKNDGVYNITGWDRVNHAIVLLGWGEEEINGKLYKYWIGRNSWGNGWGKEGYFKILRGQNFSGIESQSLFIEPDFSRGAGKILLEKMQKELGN

| SMILES | % Inhibition @ 10 uM |
| --- | --- |
| CCOc1ccc(-c2cc(=O)c3ccccc3o2)cc1 | -5.26% |
| O=C1c2ccccc2C(O)(c2ccccc2)N1Cc1ccco1 (stereo not shown) | 1.32% |
| Cc1[nH]c2ccc(C(=O)NCc3ccccn3)cc2c1C | 3.95% |
| CCN1CCCC1CNC(=O)CCn1cnc2onc(-c3ccc(F)cc3)c2c1=O (stereo not shown) | -2.34% |
| Cc1c(/C=C/c2nc3ccccc3c(=O)n2C)c2ccccc2n1C | 2.65% |
| CCOc1ccc(NC(=O)C2CCCCC2)cc1 | -3.57% |
| CCCCOc1ccc(C(=O)/N=c2\c(C(=O)OCC)cc3c(=O)n4ccccc4nc3n2C)cc1 | -0.363% |
| Cc1nc2ccccc2nc1N1CCNCC1 | 0.51% |
| Fc1ccc(-n2ncc3c(NCc4ccc5c(c4)OCO5)ncnc32)cc1 | 2.07% |
| Cc1ccc(CNc2oc(COc3ccccc3)nc2C#N)cc1 | -7.55% |
| O=C(Nc1ccc(N2CCOCC2)cc1)c1cnsn1 | -2.76% |
| COc1ccc(-c2c(Cc3ccccc3)nn3c(O)cc(C)nc23)cc1 | -5.28% |
| CCc1ccc(-c2csc(NC(=O)c3cccnc3)n2)cc1 | -1.04% |
| COc1cc(C2C3=C(O)CC(C)(C)CC3=NC(C)=C2C(=O)Nc2ccccn2)ccc1O (stereo not shown) | -4.7% |
| CCc1ccc(N2CC(C(=O)Nc3cccc(Cl)c3C)CC2=O)cc1 (stereo not shown) | -1.32% |
| C=CCN1C2=NCCN2c2ccccc21 | 1.54% |
| Cc1cc(O)c2c(C)nc(-c3ccccc3)nc2n1 | -3.42% |
| CC(C)C[C@H](NC(=O)c1cncc(N2CCOCC2)n1)C(=O)NCC#N | -6.98% |
| CCOC(=O)C1=C(C)N(CCO)C(=O)NC1c1cccc(O)c1 (stereo not shown) | 0.503% |
| CCOC(=O)C1CCN(CC(C)c2ccccc2)CC1 (stereo not shown) | -6.62% |
| Cc1cccc(-n2c(S)nnc2CCN2CCN(C)CC2)c1 | 2.6% |
| Cn1c(=O)c2c(nc3n2CC(C24CC5CC(CC(C5)C2)C4)=NN3Cc2ccccc2)n(C)c1=O | -3.04% |
| Cc1ccc(S(=O)(=O)N(C)c2ccccc2N(C)S(=O)(=O)c2ccc(C)cc2)cc1 | 0.968% |
| CCOC(=O)c1c(NC(=O)CSc2n[nH]c(-c3ccncc3)n2)sc(C)c1C | 4.61% |
| NS(=O)(=O)c1ccc(CCNc2nc3c(-c4cccc(Cl)c4)nnn3c3ccccc23)cc1 | -2.92% |

| SMILES | % Inhibition @ 10 uM |
| --- | --- |
| CN(C)c1ccc(C2C(C#N)=C(N)N(c3ccc(Cl)cc3)C3=C2C(=O)CCC3)cc1 (stereo not shown) | 4.39% |
| COc1ccc(NS(=O)(=O)c2ccc(NC(=O)COc3cccc(C)c3)cc2)cc1 | 1.86% |
| O=C(C1=C(O)C(=O)N(CCCn2ccnc2)C1c1cccc(Cl)c1)c1cc2ccccc2o1 (stereo not shown) | -8.89% |
| Cc1cc(C)c2c(n1)SCC(=O)N2CC(=O)NCCCc1ccccc1 | 4.02% |
| CCOC(=O)N1CCN(C(=O)C2CCCN2S(=O)(=O)c2cccc3nsnc23)CC1 (stereo not shown) | 2.93% |
| COc1ccc(N(CC(=O)NCc2ccccc2Cl)S(C)(=O)=O)c(OC)c1 | 11.6% |
| COc1cccc(CN2CCN(Cc3ccccc3F)CC2)c1 | -7.93% |
| CCCCOc1ccc(C2c3c(oc4ccc(F)cc4c3=O)C(=O)N2CCCN(C)C)cc1 (stereo not shown) | 3.93% |
| CCc1cc2c(cc3c(=O)n(CC(=O)N4CCc5ccccc5C4)nc(CC)n32)s1 | -1.7% |
| O=C(C1CCCN(S(=O)(=O)c2cccc3nsnc23)C1)N1CCN(c2ccccn2)CC1 (stereo not shown) | -4.69% |
| COc1ccc(Cl)cc1NS(=O)(=O)c1ccc(OC)c(Cl)c1Cl | -9.6% |
| CC1(C)CC(=O)C(/C=N/Cc2ccc3c(c2)OCO3)=C(O)C1 | -2.87% |
| O=C(O)c1cccc(NC(=O)c2cccc(S(=O)(=O)N3CCc4ccccc43)c2)c1 | -0.622% |
| CC(C)(C)NCC(O)Cn1c2ccccc2c2ccccc21 (stereo not shown) | 5.03% |
| Cc1onc(-c2ccccc2Cl)c1C(=O)NCCCN1CCOCC1 | 3.01% |
| Cc1nn(Cc2ccc(C(=O)NCc3ccc(F)cc3)o2)c(C)c1Cl | -1.37% |
| O=C(CCN1CCN(c2ccccc2)CC1)Nc1ccc(OCc2ccccc2)cc1 | -1.89% |
| COC(=O)c1sc(-c2ccccc2)cc1NC(=O)c1ccc(Br)o1 | -3.96% |
| C=CCNC(=O)c1sc2nc(C)cc(C)c2c1NC(=O)c1ccccc1Cl | -5.96% |
| Cc1ccc(S(=O)(=O)/C(C#N)=C/C2=Cc3ccccc3OC2)cc1 | -1.33% |
| CC(=O)N[C@H]1[C@H](Oc2ccc3c(C)cc(=O)oc3c2)O[C@H](CO)[C@@H](O)[C@@H]1O | -4.51% |
| CCN1CCN(C(=O)c2cnn(-c3ccc(C)c(C)c3)c2C2CCN(C(=O)OC(C)(C)C)CC2)CC1 | 4.76% |
| COC(=O)C1CCCN1Cc1ccc(F)c(F)c1 (stereo not shown) | -1.41% |
| CCOc1ccc(Br)cc1C1N2CC3(C)CN1CC(CC)(C2)C3=O (stereo not shown) | -1.31% |
